Results reported in the supplement of paper PMC10126150.
Values marked as one replicate rest on one cluster of the flow cell; about a third of the high ones do not repeat.

System: ATP
Assay: switch fluorescence ratio, 500 uM ATP over buffer (Cy3 cluster intensity, sum of 5 cycles each) (fold (ratio)); higher = stronger signal-on switching upon ATP binding; sequences stand for … in TCGTCGGCAGCGTCAGATGTGTATAAGAGACAGTTTTTTTTTTTTTTTTTTTTTTTTT…TC
Conditions: aptamer strand: ATP DNA aptamer (quencher-CACCTGGGGGAGTATTGCGGAGGAAGG + anchor), 100 nM annealed; ATP concentration: 500 uM; one replicate
Summary of the method: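 Between each of five buffer/ATP cycles, the flow-cell was stripped with NaOH and re-annealed. Each cycle imaged Cy3-labelled switching-strand clusters, annealed to 100 nM quencher-labelled ATP aptamer on a modified Illumina MiSeq flow-cell, first in selection buffer and then after 15 min with 500 uM ATP at 22 °C. The fluorescence ratio is summed target-cycle over summed buffer-cycle Cy3 intensity per cluster, averaged per switch-domain sequence, with clusters outside 100-1000 RFU excluded.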
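Further: ATP exposure 15 min at 22 °C before imaging.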

Row | Sequence | switch fluorescence ratio
1 | TGGGACTTGT | 0.968
2 | TCAGTAGGTT | 1.02
3 | TCGAAAGGAC | 1.07
4 | GTTAGGGATG | 0.965
5 | TAGGATCCCA | 1.06
6 | ACTTTACATG | 1.48
7 | CTCGCAGGCA | 1.19
8 | GGCGTATATA | 0.989
9 | ACGGTCTTTA | 0.98
10 | TAGAGTGAAG | 0.993
11 | TCAGCTGTCC | 1
12 | CCAGGAG | 1.18
13 | AAGCCGTGGA | 0.962
14 | GATTTGTGAG | 1
15 | AACTAGCCCG | 1.05
16 | TGACGCGGCT | 1.01
17 | TCACCATGCT | 0.952
18 | TGATATGAGA | 0.987
19 | CATTGTTTTT | 0.992
20 | CTAGGGTCAC | 0.984
21 | CGGGCGGACT | 1
22 | TTTAACTGAG | 1.02
23 | TTTCCGAGGT | 1.07
24 | TGACCCAAAC | 1.11
25 | CTCTACGCGG | 1.08

Row | Sequence | switch fluorescence ratio
26 | TACCCGTATT | 1.02
27 | TATGTAGTG | 0.984
28 | AGTCGTATGC | 0.943
29 | GCCATTCAAT | 1.01
30 | CAAACTGATT | 1.04
31 | CACCAAATTT | 1.07
32 | CGCAACTATT | 1.93
33 | GATCCGTCGT | 1.02
34 | AAACGGTCTC | 1.01
35 | AAGTATGAGA | 1.02
36 | GGAGGGTGAA | 1.03
37 | TTTAGATTAG | 1
38 | CATTAATTAT | 0.99
39 | ACCCGGCTGA | 1.01
40 | ACTACCACGG | 2.44
41 | TAGCTTACAG | 1.08
42 | TTTTTGTGT | 0.954
43 | GGGGCGGAAG | 1.06
44 | TTAACTCGTT | 0.981
45 | TAAGGGATTA | 1.01
46 | ATAGTCGGGA | 0.982
47 | AAAGCTACCT | 1.29
48 | GAAGCGGGTT | 1.01
49 | TCATATGGTA | 0.963
50 | GGAATCAGGC | 0.977

Row | Sequence | switch fluorescence ratio
51 | CCCCGAGTGT | 3.03
52 | GTGGTTGGTG | 0.994
53 | AGCAACTTCG | 1.01
54 | GGGTAAACGA | 1.01
55 | AGCTGGACTC | 1.53
56 | CCTTGTTGGG | 0.998
57 | GGGGGACAGT | 0.995
58 | CACTGAATGT | 1.01
59 | GCAGCGTTGG | 0.983
60 | TTGCTCGAGG | 1
61 | AACCCATGGG | 1.01
62 | ACAGTTGGTA | 1.03
63 | AATGGCGCA | 0.983
64 | TATTTCTTCC | 1.75
65 | CCCATACTTT | 1.04
66 | TTCCTATGAC | 1.01
67 | GGCGATCCGC | 1.01
68 | CGCCGTGTAC | 2.6
69 | AGGCATCTAG | 0.989
70 | TCACACACC | 1.46
71 | GCGATAAGTG | 1.06
72 | GTTAATCTTG | 1.02
73 | GACCTCTACG | 1.14
74 | CATCACGACA | 1.22
75 | CCGGGTTTAA | 1.07

Row | Sequence | switch fluorescence ratio
76 | AACCAGGGCA | 1.06
77 | CCGTCGCCT | 1.2
78 | AATTAAGTCC | 1.02
79 | TCCGTCTGTC | 1.12
80 | CTGTTAGGA | 1.02
81 | TTTTATAATC | 1.01
82 | GTGCGTATTG | 0.987
83 | CGGGGGACGA | 1.01
84 | GATTTGATGC | 1.05
85 | ACGAAAAGAT | 1.03
86 | CCCAATGTCC | 1.78
87 | TTAAGGATTG | 1.02
88 | CATGCGTGTC | 1.17
89 | CTTCGTTAGA | 0.991
90 | TATCGCCCTT | 0.991
91 | AACGTCTGCG | 1.01
92 | TGATCATTCA | 1.02
93 | TAAATAAAAG | 0.987
94 | TGATAGAAGC | 0.961
95 | ATTCGAATCC | 1.3
96 | GTTCCTACAG | 1.01
97 | AGTGTGACGT | 1.04
98 | AACGGGACTA | 1.14
99 | AGTGATTTAA | 1.02
100 | GGGAAGTGGA | 1.05

Row | Sequence | switch fluorescence ratio
101 | CTTACGGGGG | 1.02
102 | TACCAACGGG | 1.09
103 | GCCTCACACT | 0.961
104 | GGTCGAGGGC | 0.997
105 | CGTGATTCTT | 1.02
106 | TCGCTCAACA | 0.982
107 | CCACCACCGA | 1.13
108 | TCGTGGGCCA | 0.963
109 | TTGAAGGACG | 0.955
110 | TCCAAGATAA | 1.38
111 | AAAGGTGAGT | 1.09
112 | TAAACGCCAG | 1.03
113 | AGCTTAACA | 1
114 | ATCAATCTTT | 0.993
115 | TTATGCAGTA | 1.03
116 | CCATATTACC | 1.02
117 | CTTCTTACCT | 1.13
118 | GGCTATTTCA | 1.01
119 | GCTTTCAGTG | 0.975
120 | TTGACAGCG | 1.04
121 | AAGAGGTGA | 0.977
122 | CCATTGACT | 1.06
123 | GCAGCTGGGG | 1.05
124 | ACTTAGCCAA | 1.08
125 | GTCGAAAGTT | 1.01

Row | Sequence | switch fluorescence ratio
126 | ACCTTGTTT | 1
127 | GCACGAATAA | 1.06
128 | TGCGGTAGCT | 1.04
129 | AGGACACCCG | 0.955
130 | CCGGGGGCCC | 2.57
131 | TAGAGGTGCA | 1
132 | CGTGGGCATA | 1.19
133 | GCAGTAAATT | 1.01
134 | CATCCAATTT | 1.05
135 | ATGTCGC | 0.949
136 | TATTACACGA | 1.02
137 | GAAGTTACAA | 1.02
138 | TTCGTCTCGT | 0.986
139 | TGCGTAGTTG | 0.984
140 | CCGAGGATCA | 1
141 | GGCGTCCCTT | 1.02
142 | GCGTTAGTGT | 0.944
143 | CCATATGTAT | 0.987
144 | TTGTTTATTG | 0.994
145 | CGCAACAGTA | 1.08
146 | GATGCCCATT | 1.03
147 | GGGCCACGGG | 1.02
148 | AATTTTATAT | 0.975
149 | GGAACTGGTG | 1.08
150 | TGGCTGAGTG | 0.99

Row | Sequence | switch fluorescence ratio
151 | CGGTCATCAC | 1.03
152 | GCGACCCGT | 1.16
153 | AGGCGCGCTG | 0.951
154 | AAAAGCGGTG | 0.979
155 | CGCCATCCTG | 1.06
156 | CCAGGCAGGT | 1.11
157 | CTACGGTCCA | 1.03
158 | TAAGATCGCG | 0.993
159 | GGTGACGGTC | 0.981
160 | TTGCTACCTA | 1.04
161 | CACAAAGAGG | 1.03
162 | ATAGTGAAAG | 0.979
163 | TACGACCGCT | 1.37
164 | TTTTCTCGAA | 1.07
165 | CGTAAGGGTC | 1.35
166 | GCAAGTGTCT | 1.07
167 | CGCTCGGACC | 1.1
168 | TTTCGAGATC | 1
169 | TGAACTTTGG | 0.945
170 | TGCACGAGAA | 1.06
171 | AGCCCGGCTT | 0.985
172 | TAGATAGTTC | 0.971
173 | GTGAGCGACA | 0.987
174 | CGATTGTGTC | 0.926
175 | CGCGGTATGA | 0.981

Row | Sequence | switch fluorescence ratio
176 | AGTCTGCAAA | 1.72
177 | GCGTACTCTT | 1.08
178 | CAGCCCCCTG | 1.08
179 | AGGATAGGCG | 0.906
180 | GTTTTAACCT | 1.24
181 | CGACTGGAGG | 1.01
182 | CGTACCTAGG | 1
183 | TCCTGTACAG | 0.996
184 | AATTGCCGCA | 1.06
185 | GCGGGAGGAC | 1.04
186 | AAGACTTTGG | 0.948
187 | GGCTTGAAAG | 1.04
188 | ATAAGACGTC | 0.948
189 | GAAGGTCGGA | 1.02
190 | CGCTCATCCG | 1.06
191 | GTAATAACTC | 1.12
192 | AGCGTGTCTG | 1.04
193 | CTGGCATGTG | 1.02
194 | TACCCGACT | 1.05
195 | CCGATATAGG | 1.08
196 | ACGATTTGCC | 1.05
197 | ACCGTAATAT | 5.49
198 | GGTGGTATTA | 0.982
199 | TATTACAAAC | 1.15
200 | CGTATTGACC | 1.01
